Measurements as given in PubChem BioAssay AID686979 (National Center for Advancing Translational Sciences (NCATS), 2013).
Among all 420,000 compounds or so, about 50,000 (12%) were called active. The inconclusive results got no clear call from the source; some entries with a clear call stand among them for comparison. The call rests on the fitted dose curve; in most records, active means well fitted inhibition curve with a large enough effect; inconclusive means small, poorly fitted or top-dose-only effect; inactive means flat fitted curve, though single readings scatter. Potencies of inconclusive entries are left out as doubtful fits.

Assay: qHTS for Inhibitors of human tyrosyl-DNA phosphodiesterase 1 (TDP1): qHTS in cells in presence of CPT; further: nearly all actives have a fitted effect of over 55% in size
Details: chicken DT40 Tdp1-/-;hTDP1 cells + 20 nM CPT, ATP luminescence, 48 h; activity change, negative = growth inhibition: at 46.2 µM (top of the series)
Method in brief: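 Cell growth measured by CellTiter-Glo luminescence after a minimum 48 h, 37 C compound exposure with 20 nM CPT in Tdp1-knockout DT40 cells stably expressing hTDP1, seeded 400/well; qHTS titration format.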
On the % scale 0 is the no-effect control and ±100 the full control effect; potency means the concentration at half of the fitted maximal effect; tags describe the fitted curve by direction and shape.

Row | Structure (SMILES) | Potency | activity change, negative = growth inhibition
1 | Cc1cc(N2CCCC2)nc2ccc(NC(=S)NCCCOC(C)C)cc12 | inconclusive [inhibitor, single point] | –
2 | COc1cc2c(cc1OC)CN(Cc1cc(=O)oc3c(C)c(C)ccc13)CC2 | inconclusive [inhibitor, partial curve] | –
3 | COCCCN1C(=O)C(=O)/C(=C(/O)c2ccc(S(=O)(=O)N3CCOCC3)cc2)C1c1ccc(Cl)cc1 (stereo not drawn) | inactive | –
4 | Cc1ccc(C2(C)NC(=O)N(CC(=O)Nc3ccccc3N3CCCCC3)C2=O)cc1 (stereo not drawn) | inconclusive [inhibitor, single point] | –
5 | c1ccc(-c2nc(N3CCNCC3)nc3ccccc23)cc1 | inconclusive [inhibitor, single point] | –
6 | C/C(=N\NC(=O)c1ccccc1O)c1ccc(NC(=O)c2ccccc2)cc1 | inconclusive [inhibitor, single point] | –
7 | CCOC(=O)c1ccccc1NC(=O)COC(=O)CSCC(=O)Nc1cc(C)on1 | inactive | –
8 | O=C(/C=C/c1ccc2c(c1)OCCCO2)c1ccc2ccccc2c1O | inconclusive [inhibitor, single point] | –
9 | Cc1nn2c(NCCOCCO)c3c(nc2c1-c1ccccc1)CCCC3 | inactive | –
10 | OCCn1c(SC2CCCCC2)nc2ccccc21 | inactive | –
11 | CC(=O)NNC(=S)NC(=O)c1ccccc1 | inconclusive [inhibitor, single point] | –
12 | O=C(Nc1cccc(C(F)(F)F)c1)c1ccc2c(c1)nnn2C1CCCC1 | inconclusive [inhibitor, single point] | –
13 | CCOC(=O)c1[nH]c(C)c(C(=O)NCCN2CCOCC2)c1C | inactive | –
14 | CN(c1ccccc1)S(=O)(=O)c1ccc(C(=O)NCc2cccs2)cc1 | inconclusive [inhibitor, single point] | –
15 | NC(=O)c1nsc(C(=O)N(Cc2ccco2)C(C(=O)NCc2ccccc2)c2ccc(O)cc2)c1N (stereo not drawn) | inconclusive [inhibitor, single point] | –
16 | CCc1ccc2c(c1)NC(=O)C2(C)Cc1cccc(F)c1 (stereo not drawn) | inconclusive [inhibitor, single point] | –
17 | Cc1cc(C)c2nc(C)cc(N/N=C/c3ccc(O)cc3)c2c1 | active: 3.26 µM | –
18 | COc1cc(Br)cc(CN2CCN(C=O)CC2)c1O | active: 25.9 µM | –
19 | O=C(CCCn1c(=O)oc2ccccc21)NNC(=O)COc1ccc(F)cc1 | inactive | –
20 | CC(C)c1ccc(NC(=O)C2CCN(S(C)(=O)=O)CC2)cc1 | – | inconclusive: -35.8% [inhibitor]
21 | CCc1cc2ccc(C)cc2nc1SCC(=O)N1CCN(C(=O)c2ccco2)CC1 | inconclusive [inhibitor, single point] | –
22 | O=C(Nc1cccc(NC(=O)C2CC3CCCC(C2)C3=O)n1)C1CC2CCCC(C1)C2=O (stereo not drawn) | inconclusive [inhibitor, single point] | –
23 | Cc1ccc(-n2cc(CNCCc3cscn3)c(-c3ccc(F)cc3)n2)cc1 | inconclusive [inhibitor, single point] | –
24 | O=C(/C=C\c1ccc2c(c1)OCO2)Nc1c2c(nn1-c1ccc(Cl)cc1)CSC2 | inconclusive [inhibitor, single point] | –
25 | Oc1ccc(/C(Cc2ccc3ccccc3n2)=N\Nc2ccccc2)c(O)c1 | inconclusive [inhibitor, single point] | –

Row | Structure (SMILES) | Potency | activity change, negative = growth inhibition
26 | O=[N+]([O-])c1cc(Cl)cc(/C=N/NC(=S)Nc2ccc(S(=O)(=O)N3CCOCC3)cc2)c1O | inconclusive [inhibitor, single point] | –
27 | COc1ccc(NC(=O)c2ccc(-c3ccc([N+](=O)[O-])cc3)o2)cc1 | – | inconclusive: -32.3% [inhibitor]
28 | COc1ccc([C@H]2CC(=O)C=C(c3ccc(F)cc3OCc3ccccc3)C2)cc1OC | inconclusive [inhibitor, single point] | –
29 | COc1ccc(C)cc1NC(C)C(=O)NC(=O)NC1CCCCC1 (stereo not drawn) | inconclusive [inhibitor, single point] | –
30 | Cc1cc(F)ccc1S(=O)(=O)Nc1ncnc2sc3c(c12)CCC3 | inconclusive [inhibitor, single point] | –
31 | CC1CCN(CCc2nc3cc(NC(=O)Nc4ccccc4)ccc3n2C)CC1 | active: 20.6 µM | –
32 | COc1cc(/C=C/C(=O)OCC(=O)c2ccc3c(c2)NC(=O)CO3)ccc1OC(F)F | inconclusive [inhibitor, full curve, poor fit] | –
33 | CN(C)Cc1csc(NC(=O)Nc2ccccc2Oc2ccccc2)n1 | inconclusive [inhibitor, single point] | –
34 | CC(C)(C)c1ccc(C(=O)Nc2ccc(S(N)(=O)=O)cc2)cc1 | inconclusive [inhibitor, single point] | –
35 | CC1Cc2nc(SCC(=O)NCCc3ccccc3)n(C)c(=O)c2S1 (stereo not drawn) | inactive | –
36 | CCOC(=O)[C@@H]1[C@H]2COc3ccc(Br)cc3[C@@H]2N2C(=O)N(c3ccc(C)cc3)C(=O)[C@]12C | inconclusive [inhibitor, partial curve, poor fit] | –
37 | CNC[C@H]1OCc2ccccc2-c2ccccc2C(=O)N([C@@H](C)CO)C[C@H]1C | inactive | –
38 | Cn1cc(CN(C(=O)Nc2ccccc2)C2CCCCC2)c2ccccc21 | active: 6.51 µM | –
39 | COc1ccc(-c2nc3sc(CCNC(=O)c4ccco4)c(C)n3n2)cc1 | inconclusive [inhibitor, single point] | –
40 | CCC(C)Nc1nc(N)c([N+](=O)[O-])c(NCc2ccccc2)n1 (stereo not drawn) | inconclusive [inhibitor, single point] | –
41 | COc1ccc(-n2c(SCC(=O)NCc3ccco3)nc3sc4c(c3c2=O)CCN(C)C4)cc1 | inconclusive [inhibitor, single point] | –
42 | O=C(OCc1ccccc1)N1CCC2CC1c1c2cccc1N1CCOCC1 (stereo not drawn) | inconclusive [inhibitor, single point] | –
43 | Cc1ccccc1OCC(O)CNC1CCC(NCC(O)COc2ccccc2C)CC1 (stereo not drawn) | active: 3.66 µM | –
44 | CN(C)c1ccc(CNS(=O)(=O)c2ccc(-c3cc(C(F)(F)F)on3)s2)cc1 | inactive | –
45 | COc1ccc(C2=NN(c3nc4ccccc4s3)C(=O)/C2=C\N(C)C)cc1 | inactive | –
46 | COc1ccccc1NC(=O)NCCCCc1ccccc1 | inactive | –
47 | O=c1c2cc(Br)ccc2nc(-c2ccc(Cl)cc2)n1O | inconclusive [inhibitor, single point] | –
48 | CCN1CCN(c2ccc([N+](=O)[O-])c(Sc3nc4ccccc4[nH]3)c2)CC1 | inconclusive [inhibitor, single point] | –
49 | CC(C)Oc1cccc(C(=O)Nc2ccc(Br)cc2F)c1 | inconclusive [inhibitor, single point] | –
50 | CCn1cc2nc(SCc3cc(C)ccc3C)n(CCc3ccccc3)c(=O)c2n1 | active: 20.6 µM | –

Row | Structure (SMILES) | Potency | activity change, negative = growth inhibition
51 | CCOC(=O)C1=CCN(S(=O)(=O)c2cccc(Cl)c2)C1c1ccc(Br)cc1 (stereo not drawn) | inconclusive [inhibitor, single point] | –
52 | CCCCn1c(=O)c2oc3ccccc3c2n(CC(=O)Nc2ccc(CC)cc2)c1=O | active: 13 µM | –
53 | c1ccc(Cn2ncc3c(N4CCN(C(c5ccccc5)c5ccccc5)CC4)ncnc32)cc1 | active: 18.4 µM | –
54 | Cc1ccc(-n2nnc(-c3cc4ccccc4nc3Cl)n2)cc1 | – | inconclusive: -35.1% [inhibitor]
55 | CCOc1ccc2c(c1)C(c1ccc(C)cc1)=NNC(c1ccc(OC)cc1)=N2 | – | inconclusive: -32.9% [inhibitor]
56 | COc1ccc(NC(=O)CS(=O)c2ccc(Br)cc2)cc1 (stereo not drawn) | inactive | –
57 | CC(C)(C)N1CC(C(=O)Nc2ccc(C#N)cc2)CC1=O (stereo not drawn) | inactive | –
58 | COc1ccccc1NC(=O)c1ccc(COc2ccc(C)c(C)c2)o1 | inconclusive [inhibitor, single point] | –
59 | O=C1CN(c2ccccc2)C(=S)N1C(=O)c1ccc(Br)cc1 | inconclusive [inhibitor, single point] | –
60 | COc1ccc(C2N(c3ccc4c(c3)OCCO4)C(=O)C2(F)F)cc1OC (stereo not drawn) | inactive | –
61 | Cc1nn(C)c(C)c1NC(=O)COc1ccc(Cl)cc1 | active: 6.51 µM | –
62 | Cn1c(SCC(=O)NNC(=O)c2ccccc2Br)nnc1C(F)(F)F | inactive | –
63 | Cc1ccc(C(=O)c2c[nH]cc2-c2ccccc2)cc1 | inactive | –
64 | COc1cc(/C=N/N=C2/C(=O)Nc3ccccc32)ccc1O | inactive | –
65 | OC[C@@H]1CN(Cc2ccncc2)C[C@H](n2cnc3c(NC4CCCC4)ncnc32)O1 | inactive | –
66 | COc1cccc(C2C3=C(CCCC3=O)Nc3nc(-c4cc(OC)c(OC)c(OC)c4)nn32)c1 (stereo not drawn) | inconclusive [inhibitor, single point] | –
67 | O=C1CC(c2ccc3c(c2)OCO3)c2cc3c(cc2N1)OCCO3 (stereo not drawn) | inconclusive [inhibitor, partial curve, poor fit] | –
68 | COc1cccc(CN(C)CC2CCCN(CCc3ccc(Cl)cc3)C2)c1OC (stereo not drawn) | active: 16.4 µM | –
69 | O=C(CSc1nc(-c2ccccc2)cn1-c1ccccc1F)Nc1ccc(F)cc1 | active: 18.4 µM | –
70 | COc1ccc(Cl)cc1C=CC=Nc1ccccc1O | active: 23.1 µM | –
71 | CC1CCCC(C)N1C(=O)COC(=O)c1ccc(S(=O)(=O)N(C)c2ccccc2)cc1 (stereo not drawn) | inactive | –
72 | O=C(c1ccc(Sc2ccc(F)cc2)c([N+](=O)[O-])c1)N1CCOCC1 | inactive | –
73 | COc1ccc(CCNC(=O)COc2coc(CN3c4ccccc4CC3C)cc2=O)cc1OC (stereo not drawn) | inconclusive [inhibitor, single point] | –
